Some of the results follow.

The subject of this test is T1, C. trachomatis L2/434/Bu expressing GFP (CTL2-GFP).
T1 construct: L2/434/Bu GFP intracellular growth in HeLa cells
Further details: species or system HeLa; C. trachomatis total inclusion area by high-content imaging, normalised to DMSO. Particulars: total inclusion area; 28.5 h, 10 µM; inhibitor. In short, it runs like this: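 Following bulk GFP and resorufin fluorescence reads, infected cells were fixed, Hoechst-stained and imaged on a high-content platform. Inclusion total area and number per well served as growth proxies; nuclei counts indicated host viability. MICs were derived as for the fluorescence assay.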
Regarding `Cn1nc2c(c1C(=O)N1CCc3[nH]c4ccccc4c3C1)CCCC2` [CBK281844], the “% of control remaining” value is 81.4902.

Take `COc1cccc(N(CC(=O)Nc2ccc(C)c(C)c2)S(=O)(=O)c2ccc(C)cc2)c1` [CBK263761]: the “% of control remaining” value was found to be 104.742.

Regarding `COc1ccc(C(C)C)cc1-c1nc2ncccc2cc1NC(=O)C(C)C` [CBK073659], the “% of control remaining” value turned out to be 101.081.

Turning to `COCCn1c(SCC(=O)N2CCNC2=O)nc2ccccc21` [CBK305851], the “% of control remaining” value is 59.298.

For `O=c1cc(O)cc(CCc2ccccc2)o1` [CBK012714], the “% of control remaining” value was found to be 156.215.

Regarding `CC(c1ccc(Cl)cc1Cl)N(C)C(=O)Cn1cnc2c1CCCC2` (stereo not drawn) [CBK306387], the “% of control remaining” value was 25.3733.

In the case of `c1ccc(N2CCN(CC3CN(c4ccccc4)c4ccccc4O3)CC2)cc1` (stereo not drawn) [CBK066876], the “% of control remaining” value is given as 79.9069.

Take `O=C(N[C@H]1CCN2C(=O)c3cc(-c4cccs4)ccc3NC(=O)[C@@H]2C1)c1cnccn1` [CBK289559]: the “% of control remaining” value stood at 102.547.

`Cc1ccc(C)c(OCCNS(=O)(=O)c2cc([N+](=O)[O-])ccc2C)c1` [CBK267393]: the “% of control remaining” value is on record as 95.5931.

For the compound `O=C(c1cncnc1)N1CCN(c2ncccn2)CC1` [CBK144515], the “% of control remaining” value amounted to 106.605.

For `CCOC(=O)c1cn([C@H]2CC[C@H](O)CC2)cc(Oc2ccccc2)c1=O` [CBK307565], the “% of control remaining” value is on record as 55.0943.

With `Cc1ccc(S(=O)(=O)NC(C)C(=O)Nc2ccc(C)c(Cl)c2)cc1` (stereo not drawn) [CBK266263], the “% of control remaining” value is 123.918.

For the compound `O=C(CCN1C(=O)c2cccc([N+](=O)[O-])c2C1=O)Nc1cccc(-c2cnc3ccccc3n2)c1` [CBK268620], the “% of control remaining” value is 125.025.

`CC(C)C(=O)N1CC2(CCN(Cc3cccc(C(F)(F)F)c3)CC2)c2ccccc21` [CBK126716]: the “% of control remaining” value stood at 61.2703.

On to `OCCN(CC#CC(O)(c1ccccc1)c1cccc(F)c1)CCO` (stereo not drawn) [CBK301210C], for which the “% of control remaining” value is 117.539.

Turning to `COc1cccc(C(c2ccccn2)N(C)C(=O)C2CCN(S(=O)(=O)c3c(C)noc3C)CC2)c1` (stereo not drawn) [CBK060212], the “% of control remaining” value worked out at 89.6734.

Regarding `Cc1cc(C)n(CC(=O)Nc2cccc(CCc3ccncc3)c2)c(=O)n1` [CBK285555], the “% of control remaining” value was 124.088.

For the compound `O=C(N[C@H]1COC(=O)N1)OCc1ccccc1` [CBK007606], the “% of control remaining” value was determined as 85.6656.

In the case of `COc1ccc(-c2cc(C(=O)Nc3c(C)cccc3C)n[nH]2)c(OC)c1` [CBK288114], the “% of control remaining” value turned out to be 89.6289.

Take `CC12CN3CC(C)(CN(C1)C3c1cc(Br)ccc1O)C2O` (stereo not drawn) [CBK262664]: the “% of control remaining” value is given as 96.6869.

For the compound `Cc1cc(=O)n(C)c(=O)n1CCCN1CCCCC1` [CBK027584], the “% of control remaining” value is given as 110.198.

The values are drawn from publication PMC12040169 (PLOS Biology, 2025).
